{"source": "ChEMBL document CHEMBL1156829", "note": "“And” between values parts separate entries of the source, which are not always exact repeats. Equal values may be shown once. Whole data set: some 5,400 compounds, median “IFI” near 2, cut for the highest 2% near 22. Some of the results follow."}
{"test": "NOVARTIS: Inhibition Frequency Index (IFI) - the number of HTS assays where a compound showed > 50% inhibition/induction, expressed as a percentage of the number of assays in which the compound was tested.", "assay_type": "functional"}
{"smiles": "CC(C)(C)OC(=O)NCC(=O)Oc1cc2oc(=O)cc(-c3ccccc3)c2cc1Cl", "IFI": "0%"}
{"smiles": "CN(c1ccccc1)S(=O)(=O)c1ccc(C(=O)Nc2ccc(-c3nc4ccccc4[nH]3)cc2)cc1", "IFI": "7.69%"}
{"smiles": "Cc1cc(C)n(-c2cc(NN=Cc3cc(Br)ccc3O)nc(C)n2)n1", "IFI": "0%"}
{"smiles": "COc1cccc(OC)c1C(=O)Nn1c(-c2cccc(C)c2)nc2ccccc2c1=O", "IFI": "1.16%"}
{"smiles": "N#Cc1c(N)n(CCc2ccc(Cl)cc2Cl)c2nc3ccccc3nc12", "IFI": "3.12%"}
{"smiles": "Clc1cccc(Cl)c1C[n+]1ccc2ccccc2c1", "IFI": "7.69%"}
{"smiles": "CC(C)N1CCCC(C(=O)Nc2ccc(-c3nc4ccccc4[nH]3)cc2)C1", "note": "(centres undefined)", "IFI": "7.69%"}
{"smiles": "c1ccc(Cn2nnnc2CN2CCN(C(c3ccccc3)c3ccccc3)CC2)cc1", "IFI": "5.88%"}
{"smiles": "NC1=NC(c2ccccc2)N(c2ccccc2)C(N)=N1", "note": "(centres undefined)", "IFI": "1.57%"}
{"smiles": "Cc1ccccc1CN1CCN(C/C=C/c2ccccc2)CCC1=O", "IFI": "0.962%"}
{"smiles": "CCCCCCN(C(=O)c1ccc(Cl)cc1)C(CC)c1nc2ccccc2c(=O)n1-c1ccccc1OC", "note": "(centres undefined)", "IFI": "1.92%"}
{"smiles": "O=C(NC1CC1)c1ccc(CSCc2ccccc2Cl)o1", "IFI": "0%"}
{"smiles": "Cc1ccc(N=C(Nc2ccc(C)cc2)Nc2ccccc2O)cc1", "IFI": "3.3%"}
{"smiles": "CC(NCCCN(C)C)c1cc(C(C)(C)C)cc2c1CCC2(C)C", "note": "(centres undefined)", "IFI": "10.6%"}
{"smiles": "COC(=O)[C@@H]1C[C@@H](NC(=O)c2ccc(OC)cc2OC)CN1Cc1cc(C)ccc1C", "IFI": "1.71%"}
{"smiles": "Cc1ccc(N=C2S/C(=C\\c3ccccc3)C(=O)N2c2ccc(C)cc2)cc1", "IFI": "1.21%"}
{"smiles": "CC1=CC(=C(C#N)c2nc3ccccc3s2)C=C(C)N1CC1CCCO1", "note": "(centres undefined)", "IFI": "3.12%"}
{"smiles": "Cc1cc(C)c2nc(SCC(=O)Nc3ccc4c(c3)OCCO4)cc(C)c2c1", "IFI": "17.1%"}
{"smiles": "CC(=O)Nc1ccc(C2NC(=O)NC3=Nc4ccccc4SC(c4ccccc4)=C32)cc1", "note": "(centres undefined)", "IFI": "0%"}
{"smiles": "Cc1ccc(-c2c[n+](-c3ccccc3)c3n2CCCS3)cc1", "IFI": "7.69%"}
{"smiles": "CCN1/C(=C/c2ccc3cc(OC)ccc3[n+]2CC)Sc2ccc(NC(C)=O)cc21", "IFI": "5.26%"}
{"smiles": "O=C(NCCCCNc1ccnc2cc(Cl)ccc12)c1ccccc1Br", "IFI": "1.85%"}
{"smiles": "COc1cc(C(=O)NC(C)C)ccc1OC1CCN(CC(c2ccccc2)c2ccccc2)CC1", "IFI": "2.78%"}
{"smiles": "C=CCSc1nc2sc3c(c2c(=O)n1-c1ccccc1)CCN(CCC)C3", "IFI": "7.84%"}
{"smiles": "O=C(NCc1ccccc1)c1cnc(NCCCn2ccnc2)nc1NCCc1ccccc1", "IFI": "2.91%"}
{"smiles": "Oc1ccc(-c2ccc(F)cc2)cc1CN1CCCCCC1", "IFI": "1.71%"}
{"smiles": "COC(=O)C1=C(C)NC2=C(C(=O)CC(c3ccc(Cl)cc3)C2)C1c1ccc(F)cc1", "note": "(centres undefined)", "IFI": "3.61%"}
{"smiles": "C=CCn1c(SCC(=O)c2cc(C)n(-c3ccccc3F)c2C)nc2sc3c(c2c1=O)CCCC3", "IFI": "0%"}
{"smiles": "COc1cccc(-c2ccc(O)c(CNCC3CC4C=CC3C43CC3)c2)n1", "note": "(centres undefined)", "IFI": "4.31%"}
{"smiles": "COCCNCc1cc2cc3c(cc2n(Cc2cccc(F)c2)c1=O)OCO3", "IFI": "5.46%"}
{"smiles": "CCOC(=O)CN1C(=O)c2ccccc2Sc2ncccc21", "IFI": "0%"}
{"smiles": "COc1cc(C=NNc2nc3ccccc3[nH]2)ccc1O", "IFI": "0%"}
{"smiles": "COc1ccc(-n2c(=S)[nH]c3cc(C(=O)Nc4cccc(C)c4)ccc3c2=O)cc1OC", "IFI": "0%"}
{"smiles": "COc1cc(NC(C)CCCN(Cc2ccc(OC)c(OC)c2)C(=O)c2ccccc2)c2ncccc2c1", "note": "(centres undefined)", "IFI": "0.917%"}
{"smiles": "CCOC(=O)c1sc(NC(=O)CSc2nnc(CNC(=O)c3ccco3)n2-c2ccc(F)cc2)c(C(=O)OCC)c1C", "IFI": "2.35%"}
{"smiles": "COc1cc(CNNc2nc3cc(Cl)ccc3[nH]2)cc(OC)c1OC", "IFI": "0%"}
{"smiles": "Cc1cc(Cl)c(S(=O)(=O)N2CCSCC2)cc1OCC(=O)NC1CCCCC1", "IFI": "0%"}
{"smiles": "Fc1ccc(C(CCNc2ncnc3c2[nH]c2ccccc23)c2ccco2)cc1", "note": "(centres undefined)", "IFI": "16.7%"}
{"smiles": "CCCN(CCC)C1=CC(=O)C(C(C)(C)C)=CC1=O", "IFI": "0%"}
{"smiles": "C=CCNC(=O)c1ccc2c(c1)N=C(/C=C/c1ccccc1)N(CCc1cccc(OC)c1)C2", "IFI": "8.64%"}
{"smiles": "CCOCCCNC(=O)c1cc(NC(=O)c2ccc(Cl)c([N+](=O)[O-])c2)ccc1N1CCCCC1", "IFI": "2.78%"}
{"smiles": "CCOC(=O)c1c(CNc2ccncc2)n(C)c2cc(Br)c(OC(C)=O)cc12", "IFI": "3.03%"}
{"smiles": "Cc1ncc([N+](=O)[O-])n1CCOC(=O)c1c(NC(=O)c2ccccc2)sc2c1CCCC2", "IFI": "1.5%"}
{"smiles": "CC(C)CN1C(=O)c2ccccc2C(C(=O)Nc2ccccn2)C1c1cccs1", "note": "(centres undefined)", "IFI": "2.33%"}
{"smiles": "COc1ccc(Nc2nc(NN=Cc3cc([N+](=O)[O-])ccc3OC)nc(Nc3ccc([N+](=O)[O-])cc3)n2)cc1", "IFI": "2.86%"}
{"smiles": "CC(C)(C)OCCN(CC(O)CN(Cc1ccccc1)C(=O)NC(c1ccccc1)c1ccccc1)S(=O)(=O)c1ccccc1", "note": "(centres undefined)", "IFI": "0.935%"}
{"smiles": "CCC(c1nc2ccccc2c(=O)n1-c1ccc(Cl)cc1C)N(CCc1ccccc1)C(=O)c1cccc(OC)c1", "note": "(centres undefined)", "IFI": "2.83%"}
{"smiles": "Fc1ccc(Nc2nc(OC(C(F)(F)F)C(F)(F)F)nc(OC(C(F)(F)F)C(F)(F)F)n2)cc1", "IFI": "1.54%"}
{"smiles": "O=C1Nc2ccccc2C1=NN=Cc1ccc(-c2ccccc2[N+](=O)[O-])o1", "IFI": "0%"}
{"smiles": "Cc1nc([P+](c2ccccc2)(c2ccccc2)c2ccccc2)c(N2CCCCC2)o1", "IFI": "9.09%"}
{"smiles": "CN(C)CCNC(=O)c1ccc(-c2cncc(NCc3ccc(Cl)c(Cl)c3)c2)cc1", "IFI": "2.13%"}
{"smiles": "O=C(Nc1ccc(-c2nc3ccc(-c4nc5ccc(NC(=O)c6cccc7ccccc67)cc5[nH]4)cc3[nH]2)cc1)c1cccc2ccccc12", "IFI": "5.97%"}
{"smiles": "CCCCCCN(CCCCCC)CC(O)c1cc(-c2ccc(Cl)cc2)nc2c(C)cc(C)cc12", "note": "(centres undefined)", "IFI": "4.54%"}
{"smiles": "Cc1cnc(NC(=O)Nc2ccc(-c3ccc(NC(=O)Nc4ncc(C)s4)c(C)c3)cc2C)s1", "IFI": "7.14%"}
{"smiles": "CN(C)c1cc[n+](Cc2c(Cl)cccc2Cl)cc1", "IFI": "7.14%"}
{"smiles": "Cc1ccc(-n2c(-c3ccccc3)cc(C=NNC(=O)c3cccc(O)c3)c2-c2ccccc2)cc1", "IFI": "0%"}
{"smiles": "COc1ccc(OC)c(-c2ccc(O)c(CN(C)CC(O)c3ccccc3)c2)c1", "note": "(centres undefined)", "IFI": "0.99%"}
{"smiles": "Cc1c(CN2CCC(N3CCC(C(=O)NC4CC4)CC3)CC2)[nH]c2c(Cl)cccc12", "IFI": "0%"}
{"smiles": "CC[n+]1c(C=CN(C)c2ccccc2)sc2ccc(OC)cc21", "IFI": "9.38%"}
{"smiles": "Cc1ccc2[nH]c(C)c(Br)c(=O)c2c1", "IFI": "2.9%"}
{"smiles": "COc1cc(C(=O)NC(c2ccc3c(c2)OCO3)c2cc(Cl)c3cccnc3c2O)cc(OC)c1OC", "note": "(centres undefined)", "IFI": "0%"}
{"smiles": "CC(C)Nc1ccc(Nc2ccnc3cc4ccccc4cc23)cc1", "IFI": "14.3%"}
{"smiles": "O=C(Nc1c2ccccc2nc2ccccc12)c1cc(Cl)ccc1O", "IFI": "3.03%"}
{"smiles": "COc1cccc(-c2ccc(O)c(CN3CCC(C)CC3)c2)n1", "IFI": "1.74%"}
{"smiles": "CCOc1ccc2c(C)nc(NC(N)=NC(C)=O)nc2c1", "IFI": "5.8%"}
{"smiles": "CCOC(=O)C1=C(C)NC2=C(C(=O)C(C(=O)OCC)C(c3ccccc3OC)C2)C1c1ccc(Cl)cc1", "note": "(centres undefined)", "IFI": "3.75%"}
{"smiles": "CN(C)CCNc1cc(-c2cccc(C(F)(F)F)c2)nc(-c2ccncc2)n1", "IFI": "0%"}
{"smiles": "Clc1nc(Nc2ccccc2)nc(N2CCCCC2)n1", "IFI": "0%"}
{"smiles": "CCCCNCC(O)(c1ccc(Cl)cc1)c1ccc(Cl)cc1", "IFI": "1.27%"}
{"smiles": "CO[C@H](C(=O)[C@@H](O)[C@@H](C)O)[C@@H]1Cc2cc3cc(O[C@H]4C[C@@H](O[C@@H]5C[C@@H](O)[C@@H](O)[C@@H](C)O5)[C@@H](O)[C@H](C)O4)c(C)c(O)c3c(O)c2C(=O)[C@H]1O[C@H]1C[C@@H](O[C@H]2C[C@@H](O[C@H]3C[C@](C)(O)[C@@H](O)[C@H](C)O3)[C@H](O)[C@@H](C)O2)[C@H](O)[C@H](C)O1", "IFI": "9.38%"}
{"smiles": "Cc1cc(NS(=O)(=O)c2ccc(NC(=O)c3ccc([N+](=O)[O-])cc3)cc2)no1", "IFI": "0%"}
{"smiles": "Cc1cc(Nc2cccc(Cl)c2)nc2ccc(NC(=O)c3cccnc3)cc12", "IFI": "0%"}
{"smiles": "CC(=O)Nc1ccc2c(c1)C(=O)N(C(C(=O)NC1CCCCC1)c1ccc([N+](=O)[O-])cc1)[C@@H](c1ccccc1)C(=O)N2", "note": "(some centres undefined)", "IFI": "1.22%"}
{"smiles": "CC(=O)NC1=NN(C(C)=O)C(C)(c2ccc([N+](=O)[O-])cc2)S1", "note": "(centres undefined)", "IFI": "0%"}
{"smiles": "CC(C)Sc1nc2c(c(=O)n1Cc1ccco1)C1(CCCCC1)Cc1ccccc1-2", "IFI": "0%"}
{"smiles": "COc1ccc2sc(Nc3nc(-c4ccccn4)cs3)nc2c1", "IFI": "11.1%"}
{"smiles": "COC(=O)N(C)C(C)(C)C(C)=NOC(=O)c1ccccc1", "IFI": "0%"}
{"smiles": "Cc1cccc(NS(=O)(=O)c2ccc3[nH]c(=O)ccc3c2)c1C", "IFI": "0%"}
{"smiles": "COc1ccc2[nH]c3c(c2c1)CCNC3c1ccc(OC)c(CSc2nnc(-c3ccccc3)o2)c1", "note": "(centres undefined)", "IFI": "2.31%"}
{"smiles": "Cc1sc2nc(CN(C(=O)CCc3ccccc3)C3CCCCC3)[nH]c(=O)c2c1C", "IFI": "1.85%"}
{"smiles": "CN1CCN(C(c2ccco2)c2sc3ncnn3c2O)CC1", "note": "(centres undefined)", "IFI": "0%"}
{"smiles": "Cc1cccc(C)c1NC(=O)CN1C(=O)C(C)(C)Oc2ccc(C(=O)NC(C)(C)C)cc21", "IFI": "0%"}
{"smiles": "COc1cc(/C=C2\\SC(c3ccc(C)cc3)=NC2=O)cc(OC)c1OC", "IFI": "0%"}
{"smiles": "O=C(Nc1ccc(C2=NCCN2)cc1)c1ccc(NC(=O)c2ccc(C3=NCCN3)cc2)cc1", "IFI": "0%"}
{"smiles": "CCN1C=Cc2ccccc2/C1=C\\c1ccc2ccccc2[n+]1CC", "IFI": "23.6%"}
{"smiles": "CCN(CC)CCN1C(=O)c2ccccc2NC1c1ccc(N(C)C)cc1", "note": "(centres undefined)", "IFI": "5.26%"}
{"smiles": "O=C(Nc1cccc(-c2csc(-c3ccccc3)n2)c1)c1cccs1", "IFI": "0%"}
{"smiles": "CC(C)[C@@H](CO)Nc1ccnc2c(-c3ccccc3F)cnn12", "IFI": "0%"}
{"smiles": "Cc1cc(C)[n+]2nc(N)c3ccccc3c2n1", "IFI": "1.83%"}
{"smiles": "Nc1nc(NCC2CCC(CNS(=O)(=O)c3cccc4ccccc34)CC2)nc2ccccc12", "note": "(centres undefined)", "IFI": "3.91%"}
{"smiles": "CC1(C)N=C(N)N=C(N)N1c1ccc(Oc2ccc(Cl)cc2)c(Cl)c1", "IFI": "10.6%"}
{"smiles": "CCC(C(=O)N(C)CCCNc1ccnc2cc(Cl)ccc12)c1ccccc1", "note": "(centres undefined)", "IFI": "2.97%"}
{"smiles": "CCN1/C(=C/c2ccc3ccccc3[n+]2CC)Sc2c1ccc1ccccc21", "IFI": "24.1% and 14.3%"}
{"smiles": "CCCC[n+]1c(-c2ccccc2)cc(-c2ccccc2)cc1-c1ccccc1", "IFI": "17.5%"}
